According to paper PMC4336329 (PLoS ONE, 2015):
Out of some 310,000 compounds screened, about 14,000 (4.5%) showed an effect of 50% or more. The effect is printed as a negative number. Some of the results follow.

Biological target: human ether-à-go-go-related gene (hERG) potassium channel (human, UniProt Q12809)
Test: primary screen, population patch clamp on CHO cells stably expressing hERG
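Note: peak tail current of the secondary pulse compared with the same well before compound.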

Sequence of human ether-à-go-go-related gene (hERG) potassium channel (Q12809 whole entry, looked up): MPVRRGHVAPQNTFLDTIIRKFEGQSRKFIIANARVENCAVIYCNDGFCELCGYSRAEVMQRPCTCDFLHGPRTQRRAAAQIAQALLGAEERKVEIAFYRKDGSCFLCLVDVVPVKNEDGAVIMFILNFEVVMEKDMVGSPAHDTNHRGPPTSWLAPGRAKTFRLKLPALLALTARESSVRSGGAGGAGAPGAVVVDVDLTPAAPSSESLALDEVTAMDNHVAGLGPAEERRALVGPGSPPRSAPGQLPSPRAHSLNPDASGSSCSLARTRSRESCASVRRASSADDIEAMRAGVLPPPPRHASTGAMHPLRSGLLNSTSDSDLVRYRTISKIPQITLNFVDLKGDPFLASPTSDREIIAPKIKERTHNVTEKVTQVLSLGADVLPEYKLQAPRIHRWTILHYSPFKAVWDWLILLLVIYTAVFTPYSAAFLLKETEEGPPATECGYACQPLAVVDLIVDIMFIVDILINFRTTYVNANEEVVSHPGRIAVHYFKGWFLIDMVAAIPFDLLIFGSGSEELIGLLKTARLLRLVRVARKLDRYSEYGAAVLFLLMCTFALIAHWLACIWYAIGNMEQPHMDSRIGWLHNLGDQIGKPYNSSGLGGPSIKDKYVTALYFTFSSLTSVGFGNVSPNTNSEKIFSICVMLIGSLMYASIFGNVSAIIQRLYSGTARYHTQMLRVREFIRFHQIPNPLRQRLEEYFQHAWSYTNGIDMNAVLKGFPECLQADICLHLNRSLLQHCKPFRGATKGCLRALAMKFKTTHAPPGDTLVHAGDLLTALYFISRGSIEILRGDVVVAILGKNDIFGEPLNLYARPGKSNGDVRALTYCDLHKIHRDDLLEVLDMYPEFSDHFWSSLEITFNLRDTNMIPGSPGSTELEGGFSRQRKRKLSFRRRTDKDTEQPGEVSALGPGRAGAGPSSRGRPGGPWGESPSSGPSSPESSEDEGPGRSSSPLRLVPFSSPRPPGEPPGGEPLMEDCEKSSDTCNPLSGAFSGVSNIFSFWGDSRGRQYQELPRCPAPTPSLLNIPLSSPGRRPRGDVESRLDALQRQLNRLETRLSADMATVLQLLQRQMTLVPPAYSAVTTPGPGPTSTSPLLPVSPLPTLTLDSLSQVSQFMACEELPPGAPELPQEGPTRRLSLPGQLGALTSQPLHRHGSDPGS

SMILES | hERG current change (%, negative = inhibition) at 10uM [%]
COc1ccc(N(C)S(=O)(=O)c2cccc(C(=O)NC3CCCCCC3)c2)cc1 | -26
O=C(Nc1ccccc1C(=O)O)c1ccc(CN2C(=O)c3ccccc3C2=O)cc1 | 2.33
COc1ccc2[nH]c(=O)c(CN(CCO)S(=O)(=O)c3c(C)ccc4nsnc34)cc2c1 | -3.86
COC(=O)[C@@H](Cc1ccccc1)NC(=O)NCCc1c[nH]c2ccccc12 | 23
CCOc1ccc(NC(=O)C2C(c3ccccc3)C2(Cl)Cl)cc1 (stereo not shown) | 16.9
NS(=O)(=O)c1ccc(NC(=O)COC(=O)c2ccc(Cl)nc2)cc1 | -20
CC(=O)Nc1ccc(NC(=O)CCN2C(=O)c3ccccc3C2=O)cc1 | 7.22
CCC(C)c1ccc(NC(=O)COC(=O)CCNC(=O)c2ccco2)cc1 (stereo not shown) | -18.6
CCn1cc(CN2CCC(n3nccc3NC(=O)c3ccccc3OC)CC2)cn1 | -71.4
Cc1ccc(NC(=O)CCN2C(=O)c3ccccc3C2=O)cc1 | 15.4
Cc1ccc(C(=O)NC(=S)NCCCN2CCOCC2)cc1 | -7.43
CCOC(=O)c1cccc(NC(=O)CCc2ccccc2)c1 | -12.6
COc1ccc(CCNC(=O)Cn2c([N+](=O)[O-])cnc2C)cc1OC | 0.11
Cc1nnc(NC(=O)c2cccc(F)c2)s1 | 4.08
N#CCNC(=O)c1nn2c(C(F)(F)F)cc(-c3ccccc3)nc2c1Br | 17.5
O=C(Nc1ccccc1C(=O)N1CCCC1)C1CCN(c2ncccn2)CC1 | -2.79
Cc1nc2c(=O)n(C)c(=O)[nH]c2n1Cc1ccccc1 | -0.924
Cn1c(NC(=O)Cc2cccc3ccccc23)cc(=O)n(C)c1=O | 8.1
O=C(COC(=O)c1cc(=O)[nH]c2ccccc12)Nc1ccc(Cl)cn1 | 6.92
O=C(O)C/C(=C\c1ccc(Cl)cc1)c1nc2ccccc2o1 | 6.78
S=c1nc(Cc2ccccc2)[nH]c2ccccc12 | 18.6
CCS(=O)(=O)c1ccc(O)c(N2C(=O)C3C4C=CC(C4)C3C2=O)c1 (stereo not shown) | 6.35

SMILES | hERG current change (%, negative = inhibition) at 10uM [%]
Cc1c(NC(=O)C(C)OC(=O)/C=C/c2ccc3c(c2)OCO3)c(=O)n(-c2ccccc2)n1C (stereo not shown) | -0.675
CC1(c2ccc(OC(F)F)cc2)NC(=O)N(CC(=O)Nc2cccnc2Cl)C1=O (stereo not shown) | -38.6
CC(C)(C)c1cc[n+](-c2[nH]c(=O)sc2/C=N/NC([S-])=Nc2ccccc2)cc1 | -17
CCOC(=O)N1CCN(C(=O)CNS(=O)(=O)c2cccs2)CC1 | -10.5
COc1cccc(NC(=O)C(=O)NCc2ccncc2)c1 | 19.7
COCCCNC(=O)CCc1nc2cccnc2n1Cc1ccc(OC)cc1 | 10.8
N#Cc1ccc(CSc2nnc(-c3c[nH]c4ccccc34)n2-c2ccccc2)cc1 | 5.38
COC(=O)c1cn(-c2ccccc2)c(=O)c2ccccc12 | -2.04
CCN(Cc1ccccc1)C(=O)CN1C(=O)NC(CC)(c2ccc(F)cc2)C1=O (stereo not shown) | -7.55
COc1ccc(/C=N/NC(=O)c2cccc(NC(=O)c3ccccc3Cl)c2)cc1OC | -3.89
CCOC(=O)c1ccc(NC(=O)C2(c3ccc(Cl)cc3)CCCC2)cc1 | 2.55
COc1cccc(C(=O)COC(=O)c2n[nH]c(=O)c3ccccc23)c1 | 9.65
COc1ccc(-c2cnnn2-c2ccc(N)cc2)cc1OC | -10.7
CCOC(=O)C1=C(C)N(C)C(=O)NC1c1cccc([N+](=O)[O-])c1 (stereo not shown) | -8.48
O=C(N/N=C\c1cc(Br)cs1)C1COc2ccccc2O1 (stereo not shown) | 18.9
O=c1oc2cc([N+](=O)[O-])ccc2nc1/C=C(O)/C=C/c1ccccc1 | 16.2
CC(C)C[C@]1(c2ccccc2)ON(c2ccccc2C(F)(F)F)C1=O | 8.4
CSCCOC(=O)C1=C(C)NC(=O)CC1c1ccccc1Cl (stereo not shown) | -27.5
O=C(NC1CC1)C1=C[C@H](c2c[nH]c3ccccc23)C[C@H](OCCCCO)O1 | 6.67
Cc1ccc(S(=O)(=O)c2cc3c(=O)n4ccccc4nc3n(C)c2=N)cc1 | 2.04
CC(=O)Nc1ccc(NC(=S)Nc2ccc(F)cc2)cc1 | 15.9
Cc1ccc(NC(=O)C(=O)NCc2ccccn2)cc1 | 25.5

SMILES | hERG current change (%, negative = inhibition) at 10uM [%]
c1ccc(-c2nc3ccccn3c2NCc2ccc3c(c2)OCO3)cc1 | -36.1
CC(=O)Nc1sc(NC(=O)c2ccc(C)cc2)nc1-c1cccs1 | 14.7
COc1ccc(C2CC(=O)C(C=NCCCN3CCOCC3)=C(O)C2)cc1 (stereo not shown) | 27.7
Cc1c(N=C2N=C(NC(=O)NC(C)(C)C)c3ccccc32)c(=O)n(-c2ccccc2)n1C | 27
CC(C)(COC(=O)Nc1ccccc1)COC(=O)Nc1ccccc1 | -9.22
Cc1cccc(CSCc2ccc(C(=O)O)o2)c1 | 16.5
C/C(=N\NC(=O)CNC(=O)C1COc2ccccc2O1)c1ccco1 (stereo not shown) | -41.3
Cc1cc(C(=O)CSc2nnnn2C)c(C)n1CCc1ccc(Cl)cc1 | -1.64
Cc1c(/C=N/O)c2ccccn2c1C(=O)c1ccc(F)cc1 | 4.47
Cc1cc(C)c2nc(NC(=O)c3ccc([N+](=O)[O-])o3)sc2c1 | 33.3
CCC(=O)N/N=C/c1ccc(-c2ccc(Cl)cc2)o1 | 3.47
COc1cccc(C=Nc2ccc(N3CCOCC3)cc2)c1O | 17.9
c1csc(C(c2nnnn2C2CCCC2)N2CCCC3(CCCCC3)C2)c1 (stereo not shown) | 3.5
CS(=O)(=O)N1CCC(C(=O)Nc2ccc(F)cc2)CC1 | 13.5
Cc1cc(C)nc(N/N=C/c2cccc([N+](=O)[O-])c2)n1 | 0.264
COc1cccc(CN2CCN(C3CCN(c4ccccc4F)CC3)CC2CCO)c1 (stereo not shown) | -74.9
Clc1ccc(-n2nnnc2-c2cnc3ccccc3c2-c2ccccc2)cc1 | 1.26
COCc1cc(C(C)=O)ccc1OC | 8.27
Cc1ccc(S(=O)(=O)c2cn(Cc3ccc(F)cc3)c3cc4c(cc3c2=O)OCO4)cc1 | -55
CCC(=O)O.O=C(Nc1cccc(C2=NCCN2)c1)Nc1cccc(C2=NCCN2)c1 | 1.17
CN(C)c1ccc2nsnc2c1[N+](=O)[O-] | -4.4
CCC1(CC)C(=O)NC(=O)NC1=Nc1cccc(OC)c1 | 4.6

SMILES | hERG current change (%, negative = inhibition) at 10uM [%]
c1ccc(OCc2nc(-c3ccncc3)no2)cc1 | -21.6
COc1ccc(CNC(=O)CCN2C(=O)c3ccccc3C2=O)cc1OC | 16.7
CC1=NOC(=O)/C1=C/c1ccc2c(c1)OCO2 | 44.8
O=S(=O)(Nc1ccc(-c2cn3cccnc3n2)cc1)c1ccccc1 | 9.2
Clc1ccccc1N1CCN(c2ncnc3nc[nH]c23)CC1 | 14.1
O=C(Nc1cccc(Br)c1)c1ccc(CSc2ccccc2)cc1 | 3.37
O=C(OCCN1CCN(C2=NS(=O)(=O)c3ccccc32)CC1)c1ccccc1F | -16.9
Cn1cccc1C(=O)NC(=O)COC(=O)c1ccccc1Sc1ccccc1C#N | -5.81
COC(=O)c1cc(NC(=O)CC2C(=O)NCCN2C(=O)c2ccc(F)cc2)cc(C(=O)OC)c1 (stereo not shown) | 11.9
O=c1/c(=C\c2ccc(F)cc2)sc2n1CCCN=2 | -13.2
O=C(C1=C[C@@H](c2ccccc2)C[C@@H](OCc2ccc(CO)cc2)O1)N1CCOCC1 | -45
CC(=O)Nc1ccc(/C(C)=N/NC(=O)CN(c2ccccc2Br)S(C)(=O)=O)cc1 | -4.13
CCCOc1ccc(C(=O)Nc2ccc(CN3CCOCC3)cc2)cc1 | 8.46
O=c1[nH]c(C2CCCN(S(=O)(=O)Cc3ccccc3)C2)nc2c1nnn2Cc1cccc(Cl)c1 (stereo not shown) | 28.5
O=C(Cn1c(CN2CCCCC2)nc2ccccc2c1=O)NC1CCCCC1 | -1.03
Cc1cccc(CN2C[C@]34CC[C@@H](C[C@@H]3S2(=O)=O)O4)c1 | 7.08
COc1ccc(N2CCN(C(=O)c3[nH]c4ccc(OC)cc4c3C)CC2)cc1 | 7.82
O=C(CNC(=O)c1ccc(Cl)cc1)c1ccc(Br)cc1 | 7.04
CCCCCc1cc(=O)oc2c(C(CCN3CCCCC3)c3ccc(OC)cc3)c(OC)cc(OC)c12 (stereo not shown) | -59.1
Cc1cc(N2CC34C=CC(O3)C(C(=O)O)C4C2=O)no1 (stereo not shown) | 2.22
CC(=O)c1cccc(NC(=O)c2cccc(N3C(=O)c4ccccc4C3=O)c2)c1 | -10.5
CCN(CC)c1ccc(C=C2C(=O)N(C)C(=S)N(C)C2=O)o1 | 7.37
